Drawing on PubChem BioAssay (NCI), this text covers GI50 and TGI for 1 compound.

The structures appear in SMILES notation.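 These data come from cells grown in 96-well plates and exposed to compound for 48 hours at five concentrations. Abbreviation: GI50, concentration required for 50% inhibition of growth. TGI marks complete inhibition of growth.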

The experiment deals with NCI-H322M lung. Description: NCI anticancer screen, dose series, 48 h.

For `Nc1ncc(-c2ccc3ncnc(N4CCc5cc(F)c(Cl)cc54)c3c2)cc1CO`, the GI50 is 310 nM and the TGI turned out to be 2860 nM.
